Results published in patent US9931327B2, “Derivatives of 1-phenyl-2-pyridinyl alkyl alcohols as phosphodiesterase inhibitors” (Chiesi Farmaceutici S.p.A., priority 2011, dated 2018).
Several values for one entry are separate records, joined by “and”; a condition that tells them apart may be missing. Equal values may be shown once. Some results were stated once for a whole list of compounds, not compound by compound. At least one structure is not confirmed: it was looked up by name or label, or the drawing left a doubt.

Test system: T1, PDE4
T1 construct: PDE4 activity was determined in U937 human monocytic supernatants cells lysate
Assay: In vitro determination of PDE4 inhibitory activity in the cell free assay (cAMP disappearance, U937 cell lysate supernatant)
Assay type: biochemical
Conditions: U937 human monocytic cell lysate supernatant, compounds of the invention, read-out: PDE4 inhibition (IC50, 50% inhibition of cAMP disappearance)

In the case of `CN(C)C(=O)c1cccc(S(=O)(=O)N2CC(C(=O)O[C@@H](Cc3c(Cl)c[n+]([O-])cc3Cl)c3ccc(OC(F)F)c(OCC4CC4)c3)C2)c1` [Compound 281, (S)-3,5-dichloro-4-(2-(3-(cyclopropylmethoxy)-4-(difluoromethoxy)phenyl)-2-(1-(3-(dimethylcarbamoyl)phenylsulfonyl)azetidine-3-carbonyloxy)ethyl)pyridine 1-oxide], the IC50 is reported as 0.1 to 1 nM and < 0.1 nM.

`CN(C)C(=O)c1cccc(S(=O)(=O)N2CC[C@H]2C(=O)O[C@@H](Cc2c(Cl)c[n+]([O-])cc2Cl)c2ccc(OC(F)F)c(OCC3CC3)c2)c1` [Compound 283, 3,5-dichloro-4-((S)-2-(3-(cyclopropylmethoxy)-4-(difluoromethoxy)phenyl)-2-((S)-1-(3-(dimethylcarbamoyl)phenylsulfonyl)azetidine-2-carbonyloxy)ethyl)pyridine 1-oxide] and `COc1ccc([C@H](Cc2c(Cl)c[n+]([O-])cc2Cl)OC(=O)C2CCCN2S(=O)(=O)c2cccc(C(=O)N(C)C)c2)cc1OCC1CC1` (stereo partly drawn) [Compound 314, (S)-3,5-dichloro-4-(2-(3-(cyclopropylmethoxy)-4-methoxyphenyl)-2-(1-(3-(dimethylcarbamoyl)phenylsulfonyl)pyrrolidine-2-carbonyloxy)ethyl)pyridine 1-oxide] cannot be ordered by IC50: under 0.1 nM for the first, under 0.1 nM for the second.

First: O=C(O[C@@H](Cc1c(Cl)c[n+]([O-])cc1Cl)c1ccc(OC(F)F)c(OCC2CC2)c1)[C@@H]1CCN1S(=O)(=O)c1ccccc1 [Compound 284, 3,5-dichloro-4-((S)-2-(3-(cyclopropylmethoxy)-4-(difluoromethoxy)phenyl)-2-((S)-1-(phenylsulfonyl)azetidine-2-carbonyloxy)ethyl)pyridine 1-oxide]
Second: O=C(O[C@@H](Cc1c(Cl)c[n+]([O-])cc1Cl)c1ccc(OC(F)F)c(OCC2CC2)c1)[C@@H]1CCCN1CCS(=O)(=O)c1ccccc1 [Compound 291, 3,5-dichloro-4-((S)-2-(3-(cyclopropylmethoxy)-4-(difluoro-methoxy)phenyl)-2-((S)-1-(2-(phenylsulfonyl)ethyl)pyrrolidine-2-carbonyloxy)ethyl)pyridine 1-oxide]
The IC50 of the first is higher: 0.1 to 1 nM for the first, under 0.1 nM for the second. The second is the more potent here.

`CN1C(=O)Cc2cc(S(=O)(=O)N3CCC[C@H]3C(=O)O[C@@H](Cc3c(Cl)c[n+]([O-])cc3Cl)c3ccc(OC(F)F)c(OCC4CC4)c3)ccc21` [Compound 285, 3,5-dichloro-4-((S)-2-(3-(cyclopropylmethoxy)-4-(difluoromethoxy)phenyl)-2-((S)-1-(1-methyl-2-oxoindolin-5-ylsulfonyl)pyrrolidine-2-carbonyloxy)ethyl)pyridine 1-oxide] and `CN(C)C(=O)c1cccc(S(=O)(=O)N2CCC[C@H]2C(=O)O[C@@H](Cc2c(Cl)c[n+]([O-])cc2Cl)c2ccc(OC(F)F)c(OC3CCCC3)c2)c1` [Compound 308, 3,5-dichloro-4-((S)-2-(3-(cyclopentyloxy)-4-(difluoromethoxy)phenyl)-2-((S)-1-(3-(dimethylcarbamoyl)phenylsulfonyl)pyrrolidine-2-carbonyloxy)ethyl)pyridine 1-oxide] cannot be ordered by IC50: under 0.1 nM for the first, under 0.1 nM for the second.

`O=C(O[C@@H](Cc1c(Cl)c[n+]([O-])cc1Cl)c1ccc(OC(F)F)c(OCC2CC2)c1)[C@@H]1SCCN1S(=O)(=O)CCN1CCOCC1` [Compound 287, 3,5-dichloro-4-((S)-2-(3-(cyclopropylmethoxy)-4-(difluoromethoxy)phenyl)-2-((S)-3-(2-morpholinoethylsulfonyl)thiazolidine-2-carbonyloxy)ethyl)pyridine 1-oxide] and `CN1CCN(CCS(=O)(=O)N2CCS[C@H]2C(=O)O[C@@H](Cc2c(Cl)c[n+]([O-])cc2Cl)c2ccc(OC(F)F)c(OCC3CC3)c2)CC1` [Compound 288, 3,5-dichloro-4-((S)-2-(3-(cyclopropylmethoxy)-4-(difluoromethoxy)phenyl)-2-((S)-3-(2-(4-methylpiperazin-1-yl)ethylsulfonyl)thiazolidine-2-carbonyloxy)ethyl)pyridine 1-oxide] cannot be ordered by IC50: under 0.1 nM for the first, under 0.1 nM for the second.

`O=C(O[C@@H](Cc1c(Cl)c[n+]([O-])cc1Cl)c1ccc(OC(F)F)c(OCC2CC2)c1)[C@@H]1CCCN1C(=O)Cc1ccccc1` [Compound 292, 3,5-dichloro-4-((S)-2-(3-(cyclopropylmethoxy)-4-(difluoromethoxy)phenyl)-2-((S)-1-(2-phenylacetyl)pyrrolidine-2-carbonyloxy)ethyl)pyridine 1-oxide] and `O=C(O[C@@H](Cc1c(Cl)c[n+]([O-])cc1Cl)c1ccc(OC(F)F)c(OC2CCCC2)c1)[C@@H]1CCCN1S(=O)(=O)c1ccccc1` [Compound 307, 3,5-dichloro-4-((S)-2-(3-(cyclopentyloxy)-4-(difluoromethoxy)phenyl)-2-((S)-1-(phenylsulfonyl)pyrrolidine-2-carbonyloxy)ethyl)pyridine 1-oxide] fall in the same range of IC50: 0.1 to 1 nM for the first, 0.1 to 1 nM for the second.

`CN(C)C(=O)c1cccc(CS(=O)(=O)N2CCS[C@H]2C(=O)O[C@@H](Cc2c(Cl)c[n+]([O-])cc2Cl)c2ccc(OC(F)F)c(OCC3CC3)c2)c1` [Compound 295, 3,5-dichloro-4-((S)-2-(3-(cyclopropylmethoxy)-4-(difluoro-methoxy)phenyl)-2-((S)-3-(3-(dimethylcarbamoyl)benzylsulfonyl)-thiazolidine-2-carbonyloxy)ethyl)pyridine 1-oxide] and `COc1cc([C@H](Cc2c(Cl)c[n+]([O-])cc2Cl)OC(=O)[C@@H]2SCCN2S(=O)(=O)c2cccc(C(=O)N(C)C)c2)ccc1OC(F)F` [Compound 299, 3,5-dichloro-4-((S)-2-(4-(difluoromethoxy)-3-methoxyphenyl)-2-((S)-3-(3-(dimethylcarbamoyl)phenylsulfonyl)thiazolidine-2-carbonyloxy)ethyl)pyridine 1-oxide] cannot be ordered by IC50: under 0.1 nM for the first, under 0.1 nM for the second.

`COc1cc([C@H](Cc2c(Cl)c[n+]([O-])cc2Cl)OC(=O)[C@@H]2SCCN2S(=O)(=O)c2ccccc2)ccc1OC(F)F` [Compound 300, 3,5-dichloro-4-((S)-2-(4-(difluoromethoxy)-3-methoxyphenyl)-2-((S)-3-(phenylsulfonyl)thiazolidine-2-carbonyloxy)ethyl)pyridine 1-oxide] and `COc1cc([C@H](Cc2c(Cl)c[n+]([O-])cc2Cl)OC(=O)[C@@H]2CCCN2S(=O)(=O)c2ccccc2)ccc1OC(F)F` [Compound 305, 3,5-dichloro-4-((S)-2-(4-(difluoromethoxy)-3-methoxyphenyl)-2-((S)-1-(phenylsulfonyl)pyrrolidine-2-carbonyloxy)ethyl)pyridine 1-oxide] cannot be ordered by IC50: under 0.1 nM for the first, under 0.1 nM for the second.

`O=C(O[C@@H](Cc1c(Cl)c[n+]([O-])cc1Cl)c1ccc(OC(F)F)c(OC2CCCC2)c1)[C@@H]1SCCN1S(=O)(=O)c1ccccc1` [Compound 301, 3,5-dichloro-4-((S)-2-(3-(cyclopentyloxy)-4-(difluoromethoxy)phenyl)-2-((S)-3-(phenylsulfonyl)thiazolidine-2-carbonyloxy)ethyl)pyridine 1-oxide] and `CN(C)C(=O)c1cccc(S(=O)(=O)N2CCS[C@H]2C(=O)O[C@@H](Cc2c(Cl)c[n+]([O-])cc2Cl)c2ccc(OC(F)F)c(OC3CCCC3)c2)c1` [Compound 302, 3,5-dichloro-4-((S)-2-(3-(cyclopentyloxy)-4-(difluoromethoxy)phenyl)-2-((S)-3-(3-(dimethylcarbamoyl)phenylsulfonyl)thiazolidine-2-carbonyloxy)ethyl)pyridine 1-oxide] cannot be ordered by IC50: under 0.1 nM for the first, under 0.1 nM for the second.

Compared with `COc1ccc([C@H](Cc2c(Cl)c[n+]([O-])cc2Cl)OC(=O)[C@@H]2CCCN2S(=O)(=O)c2ccccc2)cc1OC` [Compound 309, 3,5-dichloro-4-((S)-2-(3,4-dimethoxyphenyl)-2-((S)-1-(phenylsulfonyl)pyrrolidine-2-carbonyloxy)ethyl)pyridine 1-oxide], `COc1ccc(C(Cc2c(Cl)c[n+]([O-])cc2Cl)OC(=O)[C@@H]2CCCN2S(=O)(=O)c2ccccc2)cc1OC1CCCC1` (stereo partly drawn) [Compound 311, 3,5-dichloro-4-(2-(3-(cyclopentyloxy)-4-methoxyphenyl)-2-((S)-1-(phenylsulfonyl)pyrrolidine-2-carbonyloxy)ethyl)pyridine 1-oxide] is higher in IC50: under 0.1 nM for the first, 0.1 to 1 nM for the second.

`COc1ccc([C@H](Cc2c(Cl)c[n+]([O-])cc2Cl)OC(=O)[C@@H]2CCCN2S(=O)(=O)c2cccc(C(=O)N(C)C)c2)cc1OC` [Compound 310, 3,5-dichloro-4-((S)-2-(3,4-dimethoxyphenyl)-2-((S)-1-(3-(dimethylcarbamoyl)phenylsulfonyl)pyrrolidine-2-carbonyloxy)ethyl)pyridine 1-oxide] and `COc1ccc(C(Cc2c(Cl)c[n+]([O-])cc2Cl)OC(=O)[C@@H]2CCCN2S(=O)(=O)c2cccc(C(=O)N(C)C)c2)cc1OC1CCCC1` (stereo partly drawn) [Compound 312, 3,5-dichloro-4-(2-(3-(cyclopentyloxy)-4-methoxyphenyl)-2-((S)-1-(3-(dimethylcarbamoyl)phenylsulfonyl)pyrrolidine-2-carbonyloxy)ethyl)pyridine 1-oxide] cannot be ordered by IC50: under 0.1 nM for the first, under 0.1 nM for the second.
